# In article PMC4336329 (PLoS ONE, 2015):
# About 2,200 (0.71%) of roughly 310,000 compounds showed an effect of 50% or more. Effects have a minus sign here. The list shows a part of the results.
# Biological target: human ether-à-go-go-related gene (hERG) potassium channel (human, UniProt Q12809)
# Experiment: primary screen, population patch clamp on CHO cells stably expressing hERG
# human ether-à-go-go-related gene (hERG) potassium channel, sequence (Q12809 whole entry, looked up): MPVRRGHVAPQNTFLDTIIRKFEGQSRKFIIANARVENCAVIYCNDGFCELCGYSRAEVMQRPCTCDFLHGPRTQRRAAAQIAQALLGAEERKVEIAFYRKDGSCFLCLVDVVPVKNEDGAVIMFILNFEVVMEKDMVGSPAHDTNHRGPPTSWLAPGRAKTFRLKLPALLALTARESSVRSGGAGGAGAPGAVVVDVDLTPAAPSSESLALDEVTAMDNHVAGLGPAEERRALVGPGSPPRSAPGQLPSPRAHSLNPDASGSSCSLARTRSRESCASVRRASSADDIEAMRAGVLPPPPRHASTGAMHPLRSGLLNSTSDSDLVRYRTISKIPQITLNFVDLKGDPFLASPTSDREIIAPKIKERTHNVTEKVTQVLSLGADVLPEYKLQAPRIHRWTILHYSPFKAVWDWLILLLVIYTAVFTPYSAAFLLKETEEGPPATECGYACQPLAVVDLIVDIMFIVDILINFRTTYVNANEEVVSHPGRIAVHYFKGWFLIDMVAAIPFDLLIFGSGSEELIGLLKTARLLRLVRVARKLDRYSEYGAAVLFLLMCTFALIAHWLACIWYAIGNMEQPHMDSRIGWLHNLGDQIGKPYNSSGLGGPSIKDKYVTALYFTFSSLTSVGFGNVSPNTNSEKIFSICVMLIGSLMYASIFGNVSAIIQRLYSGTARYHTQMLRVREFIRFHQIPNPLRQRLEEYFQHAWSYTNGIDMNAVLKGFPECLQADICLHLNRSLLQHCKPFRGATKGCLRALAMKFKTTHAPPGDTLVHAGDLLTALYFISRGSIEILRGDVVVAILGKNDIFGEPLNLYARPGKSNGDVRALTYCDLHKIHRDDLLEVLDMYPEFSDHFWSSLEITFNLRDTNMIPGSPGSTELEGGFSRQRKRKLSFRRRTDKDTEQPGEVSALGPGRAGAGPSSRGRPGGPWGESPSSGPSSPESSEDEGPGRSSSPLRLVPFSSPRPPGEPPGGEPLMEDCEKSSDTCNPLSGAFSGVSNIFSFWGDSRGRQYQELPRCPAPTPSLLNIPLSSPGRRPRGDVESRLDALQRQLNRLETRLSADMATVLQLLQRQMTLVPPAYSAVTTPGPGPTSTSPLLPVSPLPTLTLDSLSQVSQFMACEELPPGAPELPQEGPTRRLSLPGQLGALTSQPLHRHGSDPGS
row,SMILES,"hERG current change (%, negative = inhibition) at 1uM [%]"
1,CCn1c(=S)sc2c(=O)n(CC(=O)Nc3cc(OC)ccc3OC)c(C)nc21,13.7
2,Cc1nn(CC(=O)N2CCN(c3ccccc3)CC2)c(=O)c2ccccc12,7.83
3,Cc1cc(C)n(C(=O)/C(C#N)=C/N(C)C)n1,6.8
4,CCCNC(=O)C1CCN(S(=O)(=O)c2cccc3nonc23)CC1,13.3
5,CC1CCCCC1NC(=O)COC(=O)c1ccc(S(=O)(=O)N2CCOCC2)cc1 (stereo not drawn),11.2
6,CCOc1ncccc1C(=O)OCc1csc(CC(=O)Nc2ccccc2C)n1,9.16
7,COc1cc(C#Cc2c(-c3cncn3C)n(C)c3ccc(-c4ccc(OC)nc4)cc23)cc(OC)c1,11.4
8,CCCC(=O)N/C(N)=N/c1nc(C)c2cc(C)ccc2n1,6.71
9,Cc1cc(OCc2n[nH]c(=S)n2-c2ccccc2)ccc1Cl,20.7
10,CCOC(=O)C1=C(C)N(CCCC(=O)O)C(=O)NC1c1ccc2ccccc2c1 (stereo not drawn),2.15
11,Cc1ccc2c(Cn3ccnc3)cc(=O)oc2c1C,15.6
12,Cc1ccc2c(c1)[C@H]1[C@H](CO2)[C@H](c2ccccc2)[C@]2(C)C(=O)Nc3cc(Cl)ccc3C(=O)N12,16
13,Cc1csc(N2CCc3ccccc32)n1,-12.6
14,COc1ccccc1N(C)S(=O)(=O)c1ccc(C(=O)OCC(=O)Nc2ccccc2F)cc1,15.8
15,Cc1ccc(CNC(=O)CN(c2ccc(C)cc2)S(=O)(=O)c2c(C)nn(C)c2C)cc1,13.5
16,COC(=O)c1cc(C(=O)c2ccc(Cl)cc2Cl)cn1C,-2.96
17,O=C(NN1C(=O)c2ccccc2NC1c1ccccc1OCc1ccccc1)c1ccncc1 (stereo not drawn),18.1
18,Cc1ccccc1CN1CCNC1=O,12.8
19,Cc1nc(CSc2ccc(Br)cc2)cs1,18.3

row,SMILES,"hERG current change (%, negative = inhibition) at 1uM [%]"
1,CCC(C(=O)NC1CC(C)(C)NC(C)(C)C1)c1ccccc1 (stereo not drawn),10.2
2,CC1CCc2cc(F)cc3c(O)c(C(=O)NCCN(C)C)c(=O)n1c23.Cl (stereo not drawn),12.2
3,Cc1nc2ccccc2n1CCc1nc2c3ccccc3nc(SCC(=O)NCc3ccco3)n2n1,-20.8
4,NS(=O)(=O)c1ccc(NC(=S)NC2CCCCCC2)cc1,16.2
5,O=C(CN1C(=O)NC2(CCCC2)C1=O)N1CCN(S(=O)(=O)c2cc(Cl)ccc2Cl)CC1,-1.72
6,COc1ccc(CCN(C)C(=O)c2ccc(S(=O)(=O)Nc3ccccc3C)cc2)cc1OC,10.8
7,Cn1c(CC(=O)Nc2ccc(F)cc2)nnc1SCC(=O)Nc1nncs1,15
8,C=CCn1c(NC(=O)c2ccccc2Cl)c(C#N)c2nc3ccccc3nc21,-9.9
9,CC(C)=NNC(=O)c1c(O)c2ccccc2[nH]c1=O,-2.13
10,Cc1cc(OCC(=O)OCC(=O)N2CCc3ccccc32)ccc1Cl,11.4
11,O=C(NC(=S)Nc1ccc2nc[nH]c2c1)c1ccccc1,15
12,CC(=O)c1ccc(N2CCN(C(=O)CN3C(=O)NC4(CCCCC4)C3=O)CC2)c(F)c1,5.01
13,CCn1c2ccccc2c2cc(NC(=O)C(C)Oc3ccccc3)ccc21 (stereo not drawn),-0.0677
14,CCn1nc(C)c(NC(=O)CCSc2nc(-c3ccco3)cc(C(F)(F)F)n2)c1C,-0.91
15,COc1ccc(CCNc2nc(-c3ccc(F)cc3)c(CC(=O)O)s2)cc1OC,7.55
16,O=C(NCCCN1CCCC1=O)Nc1ccccc1Cl,17.8
17,Cc1ccc(C2C3=C(CC(C)(C)CC3=O)N=C3c4ccccc4C(=O)C32)cc1 (stereo not drawn),7.98
18,CCOC(=O)c1nncc(-c2ccccc2)n1,10.9
19,COc1ccc2[nH]c3c(=O)n(/N=C/c4ccc(OC)c(CN5CCCC5)c4)c(C)nc3c2c1,-5.58

row,SMILES,"hERG current change (%, negative = inhibition) at 1uM [%]"
1,COc1ccc(-c2nnn(CC(=O)OC3CCCCC3)n2)cc1OC,21.3
2,CSc1cccc(NC(=S)N2CCCN(Cc3ccccc3F)C2)c1,3.93
3,CN1c2ccccc2C(C)(C)C12CC(c1ccc(S(=O)(=O)N3CCCCC3)cc1)=NO2 (stereo not drawn),8.16
4,COc1ccc(NCc2n[nH]c(=O)c3ccccc23)cc1,9.74
5,CN(C)c1ccc(C2C3C=CC(C3)C2(C#N)C(=O)O)c(Br)c1 (stereo not drawn),14.7
6,CCC(C)Sc1nc2c(c(=O)n1C)SC(C)C2 (stereo not drawn),6.38
7,CCN(CC)S(=O)(=O)c1ccc(C(=O)NN(C)C2=NS(=O)(=O)c3ccccc32)cc1,14.5
8,CCOc1ccc(S(=O)(=O)NCCCn2ccnc2)cc1,9.49
9,CC(C)(C)OC(=O)N1CCC(NC(=O)c2[nH]cnc2C(=O)Nc2ccccc2)CC1,10.5
10,CCN1CCc2c(sc(NC(=O)c3ccc(S(=O)(=O)N(C)CC4CCCO4)cc3)c2C(N)=O)C1.Cl (stereo not drawn),1.8
11,O=C(O)CSC1c2ccccc2C(=O)N1Cc1ccccc1 (stereo not drawn),12.1
12,COc1ccc(CCN(C)C2CCCN(C(=O)c3sccc3C)C2)cc1OC (stereo not drawn),-40.3
13,Cc1ccoc1C(=O)NCc1occc1C(=O)O,-4.3
14,COc1cc(C2SC(C)C(=O)N2CCc2ccccc2)cc(OC)c1OC (stereo not drawn),1.35
15,CN(CCc1ccccn1)c1ncnc2[nH]ncc12,4.32
16,CCOC(=O)N/N=C/C=C/c1ccccc1,11.8
17,Cc1cc(C(=O)NCCCn2ccnc2)cs1,-4.08
18,CCOc1cc(C2C(C(=O)OC)=CN(Cc3ccc(Cl)cc3)C=C2C(=O)OC)ccc1O,10.3
19,N#C/C(=C\c1ccc2c(c1)OCCO2)C(=O)NC1CCCCC1,5.87
